Test results published in PubChem BioAssay AID1963963 (Molecular Pharmacology Branch, DTP, NCI, 2024).
Some entries of the source have several records that differ or are many. They are shown here; other results are not. There may be further records. The records of an entry are repeated measurements in other runs, samples, wells, individuals or studies. One block for each molecule: values may come before it.

Tested on: 958667-338-R-J2-PDC tumor spheroids viability
Experiment: Anticancer human tumor 958667-338-R-J2-PDC patient-derived colon adenocarcinoma cell line growth inhibition [PI3K]
Details: spheroids with HUVEC and MSC; for viability, T/C: stronger effect = lower value
From the text: Combinatorial screen of targeted agents with the PI3K inhibitors inavolisib, alpelisib, duvelisib, and copanlisib in multi-cell type tumor spheroids
A high-throughput screen of multi-cell type tumor spheroids was designed to identify active combinations of targeted small molecules and PI3K pathway inhibitors. Complex spheroids include a stromal component modeled by human endothelial cells (HUVEC) and fibroblasts modeled by human mesenchymal stem cells (MSCs). The concentration ranges selected for each drug and investigational agent were based upon clinically achievable concentrations if the clinical Cmax of the agent was known.
Compounds. The drugs and investigational agents: inavolisib (NSC800729), alpelisib (NSC765974), duvelisib (NSC772469), copanlisib (NSC816437), ipatasertib (NSC767898), afuresertib (NSC778305), talazoparib (NSC767125), sapanisertib (NSC764658), selumetinib (NSC741078), tovorafenib (DAY101, NSC766906), vemurafenib (NSC761431), ravoxertinib (NSC781343), sotorasib (NSC818433), MRTX1133 (NSC 836407), abemaciclib (NSC 768073), palbociclib (NSC758247), venetoclax (NSC 766270), SY5609 (NSC837396), enzalutamide (NSC755605), and darolutamide (NSC825331), were obtained from the National Cancer Institute (NCI) Developmental Therapeutics Program Chemical Repository. The FDA-approved anticancer drug set is available from the NCI Developmental Therapeutics Program. […] The stock solutions were prepared in dimethyl sulfoxide (DMSO, Sigma-Aldrich, St. Louis, MO, cat. D2650) at 800-fold the tested concentration and stored at -70 degrees C prior to their use. All drugs and investigational agents were tested over a range starting from a high concentration at or near the clinical Cmax and decreasing in half-log increments. If the clinical Cmax for an agent had not been determined, the highest concentration tested was 10 microM.
Cell Culture. All cells were maintained in an incubator at 37 degrees C and 5% CO2 with 95% humidity. The PDC lines were cultured according to standard operating procedures established by the NCI PDMR (https://pdmr.cancer.gov/sops/default.htm). All PDCs were thawed and cultured in Matrigel-coated flasks prepared with a working solution of 1X Ham's F-12 nutrient mix, without supplementation (Invitrogen, Waltham, MA, cat. 11765054), 100 U/mL penicillin-streptomycin (Invitrogen, cat. 15140122), and 2.5% Matrigel (Corning Inc., Corning, NY, cat. 354248) for the first three passages. The 354836-022-R-J1-PDC, 475296-252-R-J1-PDC, and 997726-040-R-J2-PDC lines were cultured in 6A media, which includes advanced DMEM/F-12 (Thermo Fisher Scientific, cat. 12634028), 10 mM HEPES (Thermo Fisher Scientific, cat. 15630080), 1X GlutaMAX supplement (Thermo Fisher Scientific, cat. 35050061), 0.1 mg/mL primocin (InvivoGen, San Diego, CA, cat. ant-pm-2), 10% defined fetal bovine serum, heat inactivated (HyClone Laboratories Inc., Logan, UT, cat. SH30070.03HI), 50% L-WRN conditioned media (ATCC, cat. CRL-3276), 1.25 mM N-Acetyl-L-cysteine (Sigma-Aldrich, cat. A9165), 10 mM nicotinamide (Sigma-Aldrich, cat. N0636), 1X B-27 supplement (Thermo Fisher Scientific, cat. 17504044), 1X N-2 supplement (Thermo Fisher Scientific, cat. 17502048), and 10 microM Y-27632 dihydrochloride (Tocris Bioscience, Bristol, United Kingdom, cat. 1254). The 624824-186-R-J2-PDC line was cultured in 6C/Colon 1B media, which includes all 6A media components plus 50 ng/mL human EGF recombinant protein (Thermo Fisher Scientific, cat. PHG0311). […]
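Note: spheroids exposed to compounds for seven days before readout.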

SMILES: CC1(C)CCC(CN2CCN(c3ccc(C(=O)NS(=O)(=O)c4ccc(NCC5CCOCC5)c([N+](=O)[O-])c4)c(Oc4cnc5[nH]ccc5c4)c3)CC2)=C(c2ccc(Cl)cc2)C1
- viability, T/C (compound alone 0.0316 µM): 124, 96.4, 117, 120%
- viability, T/C (compound alone 0.1 µM): 90.8, 76.9, 107, 94.1%
- viability, T/C (compound alone 10 µM): 24.6, 62.6, 57.3, 27.3%

SMILES: CC1(C)CCC(Nc2ncc(C(F)(F)F)c(-c3c[nH]c4c(P(C)(C)=O)c(C#N)ccc34)n2)CN1 (stereo unspecified)
- viability, T/C (compound alone 0.1 µM): 112, 83.4, 90.8, 92%
- viability, T/C (compound alone 0.316 µM): 89.5, 96.9, 68.9, 85.3%

SMILES: CC(C)n1nc(-c2ccc3oc(N)nc3c2)c2c(N)ncnc21
- viability, T/C (compound alone 0.00316 µM): 99.8, 79.8, 105, 96.5%

SMILES: CC(=O)c1c(C)c2cnc(Nc3ccc(N4CCNCC4)cn3)nc2n(C2CCCC2)c1=O
- viability, T/C (compound alone 0.001 µM): 79.8, 94, 89.4, 117%

SMILES: CNC(=O)c1ccc(N2C(=S)N(c3ccc(C#N)c(C(F)(F)F)c3)C(=O)C2(C)C)cc1F
- viability, T/C (compound alone 0.316 µM): 94.5, 122, 114, 104%

SMILES: CC(Nc1ccc2c(c1)OCCn1cc(N3C(=O)OCC3C(F)F)nc1-2)C(N)=O (stereo unspecified)
- viability, T/C (compound alone 0.00316 µM): 83.3, 99.4, 83.9, 102, 68.5, 113, 108%

SMILES: C=CC(=O)N1CCN(c2nc(=O)n(-c3c(C)ccnc3C(C)C)c3nc(-c4c(O)cccc4F)c(F)cc23)C(C)C1 (stereo unspecified)
- viability, T/C (compound alone 0.0316 µM): 107, 105, 130, 95.7%
- viability, T/C (compound alone 10 µM): 106, 126, 99.2, 119%

SMILES: Cn1ncnc1[C@H]1c2n[nH]c(=O)c3cc(F)cc(c23)N[C@@H]1c1ccc(F)cc1
- viability, T/C (compound alone 0.01 µM): 102, 96, 108, 82.2%

- IC50 (compound alone): 1.91, 4.89, 4.59, 5.87 µM
SMILES: Cn1ncc(Cl)c1-c1cc(C(=O)NC(CN)Cc2cccc(F)c2)sc1Cl (stereo unspecified)

SMILES: CCCS(=O)(=O)Nc1ccc(F)c(C(=O)c2c[nH]c3ncc(-c4ccc(Cl)cc4)cc23)c1F
- viability, T/C (compound alone 0.0316 µM): 95.3, 105, 111, 81.2%

SMILES: COc1c(OCCCN2CCOCC2)ccc2c3n(c(=NC(=O)c4cnc(N)nc4)nc12)CCN3
- viability, T/C (compound alone 0.01 µM): 79.5, 90.8, 73.4, 89.4, 100, 86.5, 83.9, 95.3%

SMILES: C[C@@H](NC(=O)c1ncnc(N)c1Cl)c1ncc(C(=O)Nc2cc(C(F)(F)F)c(Cl)cn2)s1
- viability, T/C (compound alone 1 µM): 96.4, 118, 81.6, 116%

SMILES: Cc1nc(NC(=O)N2CCCC2C(N)=O)sc1-c1ccnc(C(C)(C)C(F)(F)F)c1 (stereo unspecified)
- viability, T/C (compound alone 0.0316 µM): 92.7, 100, 101, 116, 104, 76.8, 83.8, 99.7%
- viability, T/C (compound alone 0.1 µM): 84.8, 79.6, 99.9, 97.7, 103, 91.7, 77.8, 88.9%
- viability, T/C (compound alone 0.316 µM): 90.8, 96.6, 95.3, 83.8, 108, 103, 75.9, 106%
- viability, T/C (compound alone 1 µM): 93.2, 74.2, 82.5, 86.7, 84.9, 99.5, 75.7, 89.3%

SMILES: CC(Nc1ncnc2nc[nH]c12)c1cc2cccc(Cl)c2c(=O)n1-c1ccccc1 (stereo unspecified)
- viability, T/C (compound alone 0.0316 µM): 85.2, 94.8, 86.5, 109, 86.6, 82.5, 101, 81.6%
- viability, T/C (compound alone 0.316 µM): 91.8, 105, 91.1, 113, 84.2, 103, 92.3, 84%
- viability, T/C (compound alone 3.16 µM): 111, 91.8, 87.7, 84, 91.2, 93.2, 90.9, 102%

SMILES: Cn1nccc1Nc1nccc(-c2ccn(C(CO)c3ccc(Cl)c(F)c3)c(=O)c2)n1 (stereo unspecified)
- viability, T/C (compound alone 0.1 µM): 103, 119, 87.2, 82.4%
- viability, T/C (compound alone 10 µM): 70.7, 86.3, 73.8, 50.1%

SMILES: Cn1cnc2c(F)c(Nc3ccc(Br)cc3Cl)c(C(=O)NOCCO)cc21
- viability, T/C (compound alone 0.03 µM): 74, 94.4, 68, 67.5%
